Over roughly 33,000 sequences, “E-score (-0.5 to 0.5)” has its median near -0.013; the highest 2% begin near 0.3. The list shows a part of the results.
These sequences were tested against T1, Msn1 (UniProt P22148) (assay: PBM E-score (8-mer binding enrichment) (E-score (-0.5 to 0.5)); higher = stronger / more preferred TF binding; most listed sequences are background and not binding sites). Settings: protein concentration: 200 nM; construct: GST-full length.
T1 sequence: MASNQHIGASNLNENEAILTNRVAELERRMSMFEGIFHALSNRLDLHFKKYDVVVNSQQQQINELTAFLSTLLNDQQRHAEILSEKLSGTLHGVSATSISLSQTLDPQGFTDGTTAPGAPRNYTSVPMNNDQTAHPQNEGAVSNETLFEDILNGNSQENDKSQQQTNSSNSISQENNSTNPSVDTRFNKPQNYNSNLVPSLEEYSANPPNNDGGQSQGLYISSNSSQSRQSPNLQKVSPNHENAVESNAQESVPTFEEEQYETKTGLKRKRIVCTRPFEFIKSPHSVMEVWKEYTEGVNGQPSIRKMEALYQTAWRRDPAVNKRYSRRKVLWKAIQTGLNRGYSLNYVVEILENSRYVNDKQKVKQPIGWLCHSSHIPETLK
Procedure, shortened: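 For each ungapped eight-base word taken together with its reverse complement, the Universal PBM Analysis Suite assigned an E-score. Binding data came from GST-tagged yeast transcription factors, applied at about 100-200 nM, on universal all-10-mer Agilent arrays made double-stranded by primer extension. Fluorescent anti-GST marked bound protein, and scans were normalised with masliner.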
CAGGCGTC was tested, and the “PBM E-score” value was -0.207.
ATGAATAG was tested, and the “PBM E-score” value was 0.0311.
AGAGGAAC was tested, and the “PBM E-score” value was -0.0926.
CTCCTCCA was tested, and the “PBM E-score” value was -0.267.
For CCCTTAGG, the “PBM E-score” value was 0.0242.
In the case of GTGAAAAA, the “PBM E-score” value is reported as 0.131.
In the case of AGCGTTAG, the “PBM E-score” value is reported as -0.107.
In the case of ACGAGAGT, the “PBM E-score” value is reported as 0.0188.
For CAATCGAC, the “PBM E-score” value was 0.0133.
AGGTTTCC was tested, and the “PBM E-score” value was -0.129.
In the case of AGCTTAGC, the “PBM E-score” value is reported as -0.079.
With AAAGCTGA the “PBM E-score” value was -0.0697.
In the case of GTTATTTA, the “PBM E-score” value is reported as 0.104.
In the case of CCCAGCGA, the “PBM E-score” value is reported as -0.126.
For ACACAGAT, the “PBM E-score” value was -0.0302.
GGCCAACA was tested, and the “PBM E-score” value was -0.221.
With CAAGACAG the “PBM E-score” value was 0.0634.
In the case of AGACGGTG, the “PBM E-score” value is reported as -0.21.
CAGCAATG was tested, and the “PBM E-score” value was -0.1.
In the case of CTACCTTC, the “PBM E-score” value is reported as -0.118.
ACGAGTTC was tested, and the “PBM E-score” value was 0.0338.
CAAAGACG was tested, and the “PBM E-score” value was 0.104.
AACGCCAC was tested, and the “PBM E-score” value was -0.0561.
CATGATTA was tested, and the “PBM E-score” value was 0.256.
In the case of CTCATCGA, the “PBM E-score” value is reported as -0.0387.
With AAAGCAGC the “PBM E-score” value was 0.0538.
ACTACCCG was tested, and the “PBM E-score” value was 0.0661.
In the case of ATGCCGAC, the “PBM E-score” value is reported as -0.0749.
For GCCGCCGC, the “PBM E-score” value was -0.262.
With ACCTCTCA the “PBM E-score” value was -0.232.
For ATGGGGAC, the “PBM E-score” value was 0.239.
For CTACTAAC, the “PBM E-score” value was 0.0299.
For GCCGTTCA, the “PBM E-score” value was -0.102.
With GAGACCTA the “PBM E-score” value was -0.0946.
For CCATAGAG, the “PBM E-score” value was 0.0389.
For ACCACAAT, the “PBM E-score” value was -0.136.
For GAACGCGC, the “PBM E-score” value was 0.0251.
AGAGTGGA was tested, and the “PBM E-score” value was -0.00496.
For GCGACGAC, the “PBM E-score” value was 0.0204.
For CACCGATC, the “PBM E-score” value was 0.0588.
For CAATGCCC, the “PBM E-score” value was -0.134.
For AGGTGAAA, the “PBM E-score” value was 0.122.
ACTCACAA was tested, and the “PBM E-score” value was -0.13.
GCGGATCC was tested, and the “PBM E-score” value was -0.207.
With CCACAAGG the “PBM E-score” value was 0.232.
AATTCATG was tested, and the “PBM E-score” value was 0.063.
With CCACTAGC the “PBM E-score” value was -0.213.
In the case of AGACACCA, the “PBM E-score” value is reported as 0.0722.
CCTGTTGA was tested, and the “PBM E-score” value was -0.00042.
With AGAGTACA the “PBM E-score” value was 0.0877.
With ACCCCGCA the “PBM E-score” value was 0.0452.
With ATTACGGG the “PBM E-score” value was -0.0761.
With AGTTGTAT the “PBM E-score” value was 0.101.
TAAGATCA was tested, and the “PBM E-score” value was 0.0901.
For GAATATGC, the “PBM E-score” value was 0.0193.
GCAAGCCA was tested, and the “PBM E-score” value was -0.124.
GAGCGTTA was tested, and the “PBM E-score” value was 0.0482.
With GATACGGA the “PBM E-score” value was 0.0955.
In the case of CTACGGAC, the “PBM E-score” value is reported as 0.0723.
With ATTGGCAC the “PBM E-score” value was 0.012.
For AGATCGCT, the “PBM E-score” value was -0.0127.
With ATTCAAAT the “PBM E-score” value was 0.188.
CTCGCTAA was tested, and the “PBM E-score” value was 0.149.
With AAAAACAG the “PBM E-score” value was 0.0408.
In the case of AGGCAAAT, the “PBM E-score” value is reported as 0.124.
In the case of AGCAATAA, the “PBM E-score” value is reported as -0.104.
With GACTTGCA the “PBM E-score” value was 0.201.
In the case of AACGGAAC, the “PBM E-score” value is reported as 0.143.
For TCGACCCA, the “PBM E-score” value was -0.228.
In the case of ATGCATGC, the “PBM E-score” value is reported as 0.0255.
AGGCGAGG was tested, and the “PBM E-score” value was -0.201.
In the case of ACAAACTG, the “PBM E-score” value is reported as 0.158.
With ATGTTATC the “PBM E-score” value was 0.144.
In the case of CGGGAAGA, the “PBM E-score” value is reported as 0.00549.
With GCCAGACA the “PBM E-score” value was 0.13.
AGTGCTGG was tested, and the “PBM E-score” value was -0.0583.
With CTACTGAC the “PBM E-score” value was -0.00957.
In the case of ATACCGGG, the “PBM E-score” value is reported as 0.0662.
For GGTGTCAC, the “PBM E-score” value was -0.0252.
With AGAACTAT the “PBM E-score” value was 0.0667.
TGTATCAA was tested, and the “PBM E-score” value was 0.325.
For ACCCGAGC, the “PBM E-score” value was 0.1.
For ATTCTCTG, the “PBM E-score” value was -0.052.
AGTTATCA was tested, and the “PBM E-score” value was 0.111.
For CGCCTCCG, the “PBM E-score” value was -0.211.
GAGCTATA was tested, and the “PBM E-score” value was -0.214.
With ATATACGC the “PBM E-score” value was -0.164.
In the case of CGAAGTCC, the “PBM E-score” value is reported as 0.162.
For TGCCCGCA, the “PBM E-score” value was 0.0376.
In the case of AATGCTGA, the “PBM E-score” value is reported as -0.0988.
With GCCGCTGA the “PBM E-score” value was 0.0352.
For GTATAAGA, the “PBM E-score” value was 0.0322.
With GACCCTCA the “PBM E-score” value was -0.0598.
CCCACCTC was tested, and the “PBM E-score” value was -0.192.
GAGACAGC was tested, and the “PBM E-score” value was -0.0865.
For AGCTTACG, the “PBM E-score” value was -0.0881.
GCAGATAA was tested, and the “PBM E-score” value was 0.0478.
AATTATGA was tested, and the “PBM E-score” value was 0.208.
For CCAAGTCG, the “PBM E-score” value was 0.0204.
In the case of CGCCTAAG, the “PBM E-score” value is reported as -0.0963.
With ATCGTGCG the “PBM E-score” value was 0.306.
CGCCACTA was tested, and the “PBM E-score” value was -0.0772.
In the case of CGGAGACG, the “PBM E-score” value is reported as 0.041.
With CGAACTGA the “PBM E-score” value was -0.0123.
With GAACTCCA the “PBM E-score” value was 0.131.
In the case of TCCACAGA, the “PBM E-score” value is reported as 0.184.
For ACGCAATC, the “PBM E-score” value was -0.094.
In the case of ACGTTCCA, the “PBM E-score” value is reported as -0.211.
AACTAGGT was tested, and the “PBM E-score” value was 0.118.

From the supplement of paper PMC3334620
